The structures appear in SMILES notation. This is one part of the list. Measured potencies and affinities stand elsewhere.

This test deals with Acinetobacter baumannii. The note with it: Concentration 32 ug.mL-1; ASSAY_TEST Inhibition of Bacterial Growth; detection method Absorption (OD600); MEDIA CAMHB; plate type 384well; NBS; CORNING #3640; time 18 hr.
What is called Inhibition is the change of the read-out against control, counted positive when it falls. For `C#CCNc1ncc(C#N)c(N)n1`, the Inhibition came out at 3.85%. As for `N#Cc1c(N)nc(NCCCCC2CCN(Cc3ccccc3)CC2)c(C#N)c1-c1ccccc1`, the figure is -6.64%. Next, `N#Cc1c(N)nc(Cl)c(C#N)c1-c1ccccc1`: 1.48%; `O=C(O)C(=Cc1ccccc1)NC(=O)c1ccccc1`: -2.6%. Next, `Nc1n[nH]c2c1C(c1ccccc1)CC(=O)N2` (centres undefined): 15.85%; `CCOC(=O)c1c(C)nc2nc3c(c(N)c2c1-c1ccc(Cl)cc1)CCCCC3`: 5.05%. On to `N#CC1=C(N)Oc2c(ccc3ccccc23)C1c1ccccc1` (centres undefined), for which the Inhibition turned out to be 4.69%. For the compound `C=CCNCc1cc2cc(OCCCC3CCN(Cc4ccccc4)CC3)ccc2[nH]1.O.O=C(O)C(=O)O.O=C(O)C(=O)O`, the Inhibition amounted to 1.08%. In the case of `COc1ccc(CNNC(=O)c2cc3ccccc3[nH]2)cc1`, the Inhibition is recorded as -6.07%. As for `O=C(N[C@H]1CC[C@@H](Br)[C@@H](Br)C1)C(F)(F)F`, the figure is 11.7%; as for `COc1ccc(-c2cc(-c3cc4ccc(F)cc4nc3Cl)cc(=O)[nH]2)cc1`, -6.5%.

For `C#CCN(C)c1nc(NCC2CCN(Cc3ccccc3)CC2)c(C#N)c(-c2ccccc2)c1C#N`, the Inhibition is -10.1%. Next, `N#Cc1c(N)nc(S)c(C#N)c1-c1ccccc1`: -3.37%; `Cc1ccc(S(=O)(=O)N[C@H]2CC[C@H](O)CC2)cc1`: 4.18%. As for `CC(=O)NC(=Cc1ccccc1)C(=O)O`, the figure is -3.63%; as for `N#CC1=C(N)Oc2c(ccc3ccccc23)C1c1ccc(Cl)c(Cl)c1` (centres undefined), 0.14%; as for `O=C(O)c1cc2ccccc2[nH]1` [INDOLE-2-CARBOXYLIC ACID], 2.61%. For the compound `ClCCC1CCN(Cc2ccccc2)CC1`, the Inhibition was 2.28%.

On to `CC1=NC(=Cc2ccc([N+](=O)[O-])cc2)C(=O)O1`, for which the Inhibition is reported as -6.48%. Consider `CCOC(=O)C1=C(C)Oc2nc3c(c(N)c2C1c1nccn1C)CCC3` (centres undefined), for which the Inhibition was determined as 0.84%.

For the compound `O=C(Cc1ccccc1)N/N=C/c1c[nH]c2ccccc12`, the Inhibition was determined as 14.43%.

On to `CN1C/C(=C\Cl)n2c1c(C#N)cc(C#N)c2=O`, for which the Inhibition is on record as 6.7%. Next, `Nc1c2c(nc3c1C(c1ccc([N+](=O)[O-])cc1)c1c(ccc4ccccc14)O3)CCCC2` (centres undefined): -4.73%; `COC1=C(C#N)CCC(=O)N1`: 7.47%; `O=C(O)c1c[nH]c2ccccc12`: 1.08%. Next, `N#Cc1cccnc1N`: 20.35%; `CC/C(C)=N/NC(=O)Cc1c[nH]c2ccccc12`: -5.55%. Next, `CC(=O)C(=Cc1ccccc1)C(=O)O[C@H]1C[C@H](C)CC[C@H]1C(C)C`: -0.02%; `O=C1OC(c2ccccc2)=NC1=Cc1ccc([N+](=O)[O-])cc1`: -1.95%. For the compound `NNC(=O)Cc1c[nH]c2ccccc12`, the Inhibition is 3.39%. Regarding `C#CCN(C)Cc1cc2cc(OCc3ccc(OC)c4ncccc34)ccc2n1C`, the Inhibition is given as -7.66%.

In the case of `COC(=O)C1(NC(=O)c2ccccc2)CC1c1ccccc1` (centres undefined), the Inhibition is listed as -9.02%. As for `N#Cc1ccc(Br)cc1N`, the figure is 19.35%; as for `CCOC(=O)c1c[nH]c2ccc(OCc3ccccc3)cc12`, -2.63%; as for `N#CC1=C(Cl)Oc2c(ccc3ccccc23)C1c1ccccc1` (centres undefined), -4.73%. Next, `N#Cc1cc2c(N)c3c(nc2nc1Cl)CCN(Cc1ccccc1)C3`: 1.22%; `COC1(N)Oc2ccc3ccccc3c2C(c2ccccc2)C1(Br)C#N` (centres undefined): 13.71%; `CCOC(=O)C1=C(C)OC(N)=C(C#N)C1c1ccccc1OC` (centres undefined): 2%. As for `CC(=NNC(N)=O)c1c[nH]c2ccccc12`, the figure is 8.63%; as for `C#CCNc1ncccn1`, -6.96%; as for `CCOC(=O)c1cc2cc(OCc3ccccc3)ccc2[nH]1`, 1.97%.

Take `CN(C)c1nc2nc3c(c(N)c2c(-c2ccccc2)c1C#N)CCCC3`: the Inhibition is recorded as 20.04%. As for `O=C(COc1ccc2ccccc2c1)N/N=C/c1c[nH]c2ccccc12`, the figure is -7.76%; as for `CC1Cc2c(Cl)nc3nc4c(c(N)c3c2NC1=O)CCCC4` (centres undefined), 5.24%; as for `N#Cc1c(Cl)nc(NC2CCN(Cc3ccccc3)CC2)c(C#N)c1-c1ccccc1`, 2.69%. For `N#Cc1cc(C#N)c(N2CCCCC2)nc1Cl`, the Inhibition was found to be 15.18%.

On to `Cn1ccnc1C1c2ccc3cccnc3c2Oc2nc3c(c(N)c21)CCCCC3` (centres undefined), for which the Inhibition is recorded as 1.29%. Next, `C#CCNc1nc(NCC#C)c(C#N)cc1C#N`: 6.24%. Next, `N#CC1=C(N)Oc2ccc3ccccc3c2C1`: 7.93%; `N#Cc1cccnc1Cl`: 0.23%; `CC1CN(C)c2c(C#N)c(-c3ccccc3)c(C#N)c(=N)n21` (centres undefined): -2.62%. Take `N#CC1(Br)C(=NBr)Oc2ccc3ccccc3c2C1c1ccc([N+](=O)[O-])cc1` (centres undefined): the Inhibition is -0.28%. For the compound `CCOC(=O)c1cc2cc(O)ccc2n1C(=O)OC(C)(C)C`, the Inhibition is 12.98%. For `COc1ccc2cc(C=O)c(Cl)nc2c1`, the Inhibition was 14.73%. Next, `N#CC1=C(N)Oc2c(ccc3ccccc23)C1c1ccc(O)cc1` (centres undefined): 7.57%; `COc1ccc2c(c1)cc(/C=C/[N+](=O)[O-])n2C`: -3.35%. As for `COc1ccc(-c2cc(-c3cc4c(C)cc(C)cc4nc3Cl)cc(=O)[nH]2)cc1`, the figure is 3.87%; as for `COc1cccc(C2c3c(ccc4ccccc34)OC(=NBr)C2(Br)C#N)c1` (centres undefined), 10.23%.

Consider `N#CC1(Br)C(=N)Oc2ccc3ccccc3c2C1c1cccc([N+](=O)[O-])c1` (centres undefined), for which the Inhibition was determined as 3.74%. As for `CCOC(=O)C1=C(C)OC(N)=C(C#N)C1c1ccc([N+](=O)[O-])cc1` (centres undefined), the figure is 12.84%. As for `COc1ccc(C2c3ccc4ccccc4c3Oc3nc4c(c(N)c32)CCCC4)c(OC)c1` (centres undefined), the figure is -16.53%.

`CCOc1nc2nc3c(c(N)c2cc1C#N)CCCC3`: the Inhibition is listed as 13.15%. As for `CCOC(=O)C1=C(C)Oc2nc3c(c(N)c2C1c1ccccc1OC)CCC3` (centres undefined), the figure is -5.85%. As for `COc1ccc(C2c3c(ccc4ccccc34)OC(=N)C2(Br)C#N)cc1` (centres undefined), the figure is -2.55%; as for `CC(C(=O)O)c1c[nH]c2ccccc12` (centres undefined), -5.35%; as for `C#CCNc1[nH]c2ccc(O)cc2c1C#N`, 17.07%. Take `C#CCN(C)c1nc(NCCCC2CCN(Cc3ccccc3)CC2)c(C#N)cc1C#N`: the Inhibition is recorded as -1.05%. Next, `O=C1OC(c2ccccc2)=NC1=Cc1ccc(Cl)cc1`: 2.33%. As for `Cc1nc2c3cnn(-c4ccccc4)c3nc(C)n2n1`, the figure is -1.29%; as for `COc1nc(N)c(C#N)c(-c2ccccc2)c1C#N`, 5.97%.

Turning to `COc1ccc(C2c3c(ccc4ccccc34)OC(=N)C2(Br)C#N)cc1OC` (centres undefined), the Inhibition is 0.78%. For the compound `Cc1[nH]nc2c1C(c1cccc([N+](=O)[O-])c1)C(C#N)=C(N)O2` (centres undefined), the Inhibition is -2.47%. Next, `N#Cc1c(N)nc(N2CCC(Cc3ccccc3)CC2)c(C#N)c1-c1ccccc1`: -0.69%. Next, `N#CC1=C(N)Oc2ccc3ccccc3c2C1c1ccccc1` (centres undefined): 9.35%; `CC(=O)Oc1ccc(C=C2N=C(c3ccccc3)OC2=O)cc1`: 10.76%. As for `N#Cc1cc2c(N)n[nH]c2nc1N`, the figure is -2.2%; as for `OCc1c(-c2ccc(Br)cc2)nc2ccccn12`, -3.49%. For the compound `O=C(N[C@H]1CC[C@H](O)CC1)c1ccccc1`, the Inhibition came out at 13.58%. As to `O=C1NC(=S)N/C1=C\c1c[nH]c2ccccc12`, the Inhibition is -0.48%.

For the compound `COc1cc(CCC(N)=O)ccc1O`, the Inhibition was -1.72%. As for `Cl.ClCCCN1CCCC1`, the figure is -12.22%.

On to `C#CCN(C)c1nc(Cl)c(C#N)c(-c2ccccc2)c1C#N`, for which the Inhibition turned out to be 16.3%. On to `C#CCN(C)c1cc(C)nc(C)n1`, for which the Inhibition is listed as -1.71%. For the compound `Cc1[nH]nc2c1C(c1ccc(O)c(O)c1)C(C#N)=C(N)O2` (centres undefined), the Inhibition was -14.7%. On to `Cc1ccccc1-c1c(C=N)c(N)nc2c1S(=O)(=O)OC2(C)C`, for which the Inhibition is -8.26%. Consider `C#CC[n+]1ccccc1N.[Br-]`, for which the Inhibition amounted to 10%. Next, `CCOc1nc(N)c(C#N)cc1C#N`: 8.13%; `COc1ccc2cc(C3C(C(C)=O)=C(C)Oc4nc5c(c(N)c43)CCCCC5)c(Cl)nc2c1` (centres undefined): 0.08%; `COC(=O)C(=Cc1ccc(OC)cc1)NC(C)=O`: -3.76%.

Regarding `N#Cc1cc(Br)cc(Br)c1N`, the Inhibition turned out to be 11.09%. Next, `C=C1CN(Cc2ccccc2)c2c(C#N)c(-c3ccccc3)c(C#N)c(=N)n21`: 11.5%; `Cn1c(CNNC(=O)Cc2cccc3ccccc23)cc2ccccc21`: -12.86%; `CSC1=NC(=Cc2ccccc2)C(=O)N1C`: 3.72%. Consider `Cl.N#Cc1c(N)nc(NCCO)c(C#N)c1-c1ccccc1`, for which the Inhibition came out at 10.99%.

As for `CC(=O)NC=C1C(=O)OC(C)(C)OC1=O`, the Inhibition is 0.37%. Next, `CC1=C(C(=O)O[C@@H]2C[C@@]3(C)CC[C@H]2C3(C)C)C(c2ccccc2)C(C#N)=C(N)O1` (some centres undefined): 5.05%; `CC1=NC(=Cc2ccccc2)C(=O)S1`: 5.61%; `N#Cc1c(Cl)nc(Cl)c(C#N)c1-c1ccccc1`: 6.21%. As for `Cc1nn(-c2ccccc2)c2ncn3nc(-c4ccccc4)nc3c12`, the figure is -0.63%; as for `N#CC1(Br)C(=NBr)Oc2c(ccc3ccccc23)C1c1ccccc1[N+](=O)[O-]` (centres undefined), -3.43%. As to `N#CC1=C(N)Oc2ccc3ccccc3c2C1c1cccc([N+](=O)[O-])c1` (centres undefined), the Inhibition is 2.59%. Next, `C#CCN(C)c1nc(OC)c(C#N)cc1C#N`: 8.02%.

As to `CCC(CC)NNC(=O)c1c[nH]c2ccccc12.Cl`, the Inhibition stood at 4.08%.

Regarding `CNC(=O)c1cc2cc(OCc3ccccc3)ccc2n1C`, the Inhibition came to 11.27%. Next, `COC(=O)C(NC(=O)c1ccccc1)=C(C)c1ccccc1`: -5.55%.

As for `COc1cc(Br)c(C=O)cc1OC`, the Inhibition is reported as -1.23%. For `COc1ccccc1C1C(C#N)=C(N)Oc2[nH]nc(C)c21` (centres undefined), the Inhibition was determined as 3.04%. As to `N#Cc1c(N)nc(NCc2ccccc2)c(C#N)c1-c1ccccc1`, the Inhibition came out at 12.81%. Next, `COc1cccc(C2C(C#N)=C(N)Oc3c2ccc2ccccc32)c1` (centres undefined): 0.48%.

For the origin of these results see ChEMBL document CHEMBL4513135, “CO-ADD screening of IQOG CSIS (Spain) compounds”.
